# Read counts are not given, so values of variants with three or more changes are uncertain.
# B1: CPEB3 Ribozyme (parent)
# chain: UAACAGGGGGCCACAGCAGAAGCGUUCACGUCGCAGCCCCUGUCAGAUUCUGGUGAAUCUGCGAAUUCUGCUGUAUAUCUC
# Variants of: B1
# Assay: self-cleavage, relative activity (ratio to wild type); higher = more cleavage; in vitro, sequencing
# How it was run: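 After error-prone PCR and barcoding, CPEB3 ribozyme mutant libraries were transcribed with T7 RNA polymerase at 37°C for 5 hours, then given 15 min with DNase I before an EDTA stop, and they cleaved during both steps. Reverse transcription with template switching preceded Illumina sequencing. Relative activity divides a variant's cleaved/total read fraction by the unmutated ribozyme's. At least 5 reads were required per variant, and three batches were averaged.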
row,Variant,self-cleavage
1,A18G A20G C23G U25C A35G A56G A64G,0.06
2,A18G A20U U67C,0.14
3,C17U A35G U74C,1.3
4,A18C A20G C40A U43C A65G,0.14
5,A18G A21G A35G,0.75
6,C17A A18G U31A U58C A64G U74C,0.12
7,C17G A18U C23G,0.09
8,A18C U26A C27U A47G U51G,0.08
9,C17A C38U G63A,0.05
10,A18C U41C U69C,0.27
11,C17G A21G U54C U60C,0.06
12,A18G A20G G36C A64G U67C,0.05
13,A18G A21G A35U U54C A75U,0.3
14,C17A A20G U72C,0.19
15,C17U G19U U25G C27U,0.29
16,A18G A20G U31C U67A,0.08
17,A18G A20U G61A A64U,0.09
18,C17U G24A U51C,0.13
19,A18G A20U U49C A64U,0.13
20,G16U U72C A77G,0.67
21,C17U A28G U72C,0.21
22,A18G A20C A35U,0.11
23,A18C A21G U25A C62U,0.06
24,C17A A28G U41A U74C U76C,0.21

row,Variant,self-cleavage
1,C17A U48C A64U U80C,0.14
2,A18C U51G U54C A64U,0.29
3,C17A A47G U54A U66C G70C,0.07
4,C17A U49A A57G U78A,0.25
5,A18C A45G A65G,0.23
6,C17U A21G U58C,0.19
7,C17U U43C U69C C71U,0.19
8,A18G A20G C23U U25C A45U,0.15
9,C17U U25C U41A U67C U78A,0.08
10,C17U U26C U54A U60C U80C,0.2
11,A18G A21G A75U,0.27
12,C17U U41C C44A A45G A65G,0.1
13,C17A A18G U51C U54G A64U U72G,0.13
14,C17U A21G U72C,0.09
15,C17G G24C C34U U43G U58A,0.06
16,A18G A20G A45U A56G U60C,0.11
17,A18G A20U U31C U43C U60C,0.56
18,C17A A64G C71G G73A U76C,0.12
19,C17U G30C C38A G70U,0.15
20,C17U C38U A64G U67A U80C,0.05
21,G16U U26C A35U U51A,0.19
22,A18G A20G G24A U41A G53C U78C,0.08
23,A18G A20G U41C U60C,0.13
24,A18G A20C C32A U69A,0.24

row,Variant,self-cleavage
1,C17G A18C C27U U31C C38A U43C U51A,0.04
2,C17U U25C U67C,0.1
3,G16U U26A C59A A64G U74A,0.08
4,C17A A20G U31C,0.35
5,C17G A21G C29G A77G,0.18
6,A18C A35U C62U,0.15
7,A18C A56G U60A U76C,0.09
8,C17U A28G A35U U60A A75U,0.1
9,A18C U25A U69C A77C C81A,0.1
10,C17G A21G A35U,0.35
11,A18C C32U A75G,0.06
12,A18C A20U U54G A65G U69A,0.04
13,A18C U49A U69G A75U,0.96
14,A18C U26C U41A,0.31
15,A18C U51C U69C A77G U80C,0.27
16,C17U U31A U43C,0.27
17,C17U U41A C68A,0.15
18,C17U U25A G52A,0.27
19,A18C A35G U74C,0.53
20,C17U A21G C37G U58C,0.13
21,A18G A20U U26C A35G C37U U43C A77G,0.03
22,A18C U31C U54C C59A,0.1
23,C17G C32U U76A,0.04
24,A18C A28G C32U U49C G52C U60A,0.05

row,Variant,self-cleavage
1,A18C G33A U48C U49C C62U C68A,0.12
2,C17U A28G A45U A77U,0.3
3,A18C A35U U51A,0.11
4,A18G A21G C27A U54G U60A,0.23
5,C17U U51C U80G,0.79
6,A18G A20G A21G G30A,0.45
7,C17U A45G A64G U76A,0.58
8,C17U U25C A57G,0.18
9,C17U U25C U49A U72C,0.08
10,C17U U25C U43C A45G A47U,0.13
11,G16U U41C U54C,0.35
12,C17U A18U A20C U26C U31G U49C G55A,0.09
13,C17U A20G A47G U67A U74C U80A,0.2
14,A18G A20G A45U U51C,0.1
15,C17G A65G U80A,0.21
16,C17U G42U U72C,0.27
17,C17U U26C U54A U80C,0.15
18,C17U U31A A35G,0.97
19,G16U U66C U74G,0.13
20,C17A U41C A45C A64U,0.07
21,A18G A20G U31C U60G A75U,0.19
22,C17A A18G U41C U72A,0.09
23,C17A C34A U54C,0.06
24,C17U A45G G55A,0.16

row,Variant,self-cleavage
1,C17U U26C A57G A75G,0.08
2,C17A A47G U54A U66C,0.1
3,A18G A20U G33U U43A A77G,0.05
4,A18G A21C U25A A65G,0.39
5,G16U U43G U51C U72C U78C,0.18
6,A18G A20U U26A C71A,0.08
7,C17G G30A U43C A56G A64C U78A,0.08
8,C17G A21G U60A,0.07
9,C17U U58C C68A,0.16
10,A18C C29G C40U U67C,0.13
11,A18C U25C G46U,0.2
12,A18C A21G A56U U58A,0.05
13,A18G A20G U49C G53U,0.25
14,A18C G22A U31C A56C,0.06
15,C17U U41C U69C,0.22
16,C17U A20U A56U U60C U72A,0.11
17,G16U U43A U72C,0.5
18,C17U A18G A20U G53A U76C,0.26
19,A18C C40U A77G,0.36
20,G16U U26C U41C A47U U80G,0.06
21,A18C U25A C32A U74C,0.06
22,A18C A56G U80C,0.46
23,A18C U51C G70C U80C,0.17
24,C17A A18G U31C U80A,0.34

row,Variant,self-cleavage
1,A18G A20U A64U,0.21
2,A18G A20G U41C A56U U58C A65U U72A,0.18
3,G16U U41A A47G U58C U80C,0.15
4,C17U U49C U76A,0.15
5,C17A A18U U26C A56G U58A,0.06
6,G16U U51C A64U U69A G73A U78C,0.09
7,A18G A20U U25A U67A U69C,0.15
8,A18G A21G C27G A47U U67G,0.04
9,A18C U25C U31A U43A C59U U67A,0.18
10,A18G A20G A56U A77G U80A,0.15
11,A18C G22U C29U U51C C79U,0.25
12,A18G A21G A56U,0.35
13,C17A C27A A28G A35G U41A A56G A65U,0.04
14,C17U U51C U72C,0.46
15,C17U U31C A57G C59A,0.1
16,C17A U25C U26A C39U U43C U72C U76C,0.08
17,C17G U25C C34G U48A U51G C62U,0.08
18,C17A A35G A56U,0.17
19,A18C G19C U49A U54A,0.1
20,A18C U31C U60C,0.28
21,C17U U25C U74C,0.38
22,A18C C44A U67C U78C,0.06
23,A18C U25C U41A U54C U66C,0.07
24,C17G A21G C29G,0.17

row,Variant,self-cleavage
1,C17U C62U A65G,0.08
2,C17U C40A A56G A64G U72G A77U,0.03
3,A18C U54A G63A,0.49
4,A18G A20G U25C A47G,0.26
5,C17U A21C C29U U54C,0.18
6,A18C U48C U60C U69C U78A,0.03
7,C17G A35G U48C U51C A57G U78C,1.33
8,C17G U25C G55A C59A U76A,0.07
9,C17U U25C C32U,0.08
10,C17U U66C A77U,0.32
11,A18C U51C A65G,0.28
12,C17U A20U A45U U49C,0.14
13,C17U A20G U25C U41A U67A,0.19
14,C17G A21G U41A U51A U69A U74C,0.07
15,A18C A28C U51C A56G U80C,0.07
16,A18C U31A A56G A65U,0.1
17,C17U U26A G53A A75U,0.64
18,A18G A20U U69A,0.19
19,G16U U26C U31C C32U A35G C44A A77G,0.14
20,A18G A20G U26C U49C U67A U76A,0.04
21,C17U U51A A65G U76C,0.35
22,A18C G42A G53A,0.09
23,G16U U31C U41C A45G U54A U58A U72C,0.05

# Reference: the RNAGym collection of RNA variant scans (doi:10.1093/nar/gkz1192)
